Read counts are not given, so values of variants with three or more changes are uncertain.
B1: CPEB3 Ribozyme (parent)
chain: UAACAGGGGGCCACAGCAGAAGCGUUCACGUCGCAGCCCCUGUCAGAUUCUGGUGAAUCUGCGAAUUCUGCUGUAUAUCUC

Variants of: B1
Test: self-cleavage, relative activity (ratio to wild type); higher = more cleavage; in vitro, sequencing
Summary of the method: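 Relative activity was defined as the cleaved/total read fraction for a variant divided by the same fraction for the unmutated ribozyme. CPEB3 self-cleaving ribozyme libraries were made by rounds of error-prone PCR, barcoded, and transcribed in vitro with T7 RNA polymerase for 5 hours at 37°C, and cleavage ran through transcription plus a 15 min DNase I step before EDTA. Illumina sequencing of template-switched reverse transcripts gave the reads, and DNA sequencing mapped the barcodes. Averages come from three batches, using variants with at least 5 reads.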
Variant A13U U54C G63U has a self-cleavage of 1.19. With A13U U54C U60C U67C the self-cleavage was 0.19. For A13U U54G A57C U60C, the self-cleavage was 0.09. Variant A13U U58C U67C has a self-cleavage of 0.4. With A13U U60A U72A U80A the self-cleavage was 0.35. Variant A13U U60C A64G A75U U80A has a self-cleavage of 0.32. With A13U U60C A65G the self-cleavage was 0.35. A13U U60C G61C G63U U78A showed a self-cleavage of 0.28. With A13U U60C U76A the self-cleavage was 0.64. Variant A13U U60C U80C has a self-cleavage of 0.41. Variant A13U U66C U74A U78A has a self-cleavage of 0.09. A13U U67A U78C gave a self-cleavage of 0.7. A13U U67C C68U showed a self-cleavage of 0.22. A13U U69C U76A A77G showed a self-cleavage of 0.75. A13U U72C U80C gave a self-cleavage of 1.32. A13U U74A U78C gave a self-cleavage of 1.26. A13U U74C A75U showed a self-cleavage of 1.2. C14A A15C A28G U43C U51A U58C U80A showed a self-cleavage of 0.07. In the case of C14A A15C U43C U51A, the self-cleavage is reported as 0.24. For C14A A15G A28G U43A U66C U76G A77G, the self-cleavage was 0.17. C14A A15G A56U A77U gave a self-cleavage of 0.62. Work on C14A A15G C40U U43C U51C A64U U80C yielded a self-cleavage of 0.1. For C14A A18G A35U U60C, the self-cleavage was 0.21. For C14A A18G A45G C59G G63A U74C, the self-cleavage was 0.21. For C14A A18U A45U A57G, the self-cleavage was 0.21. For C14A A18U A47G, the self-cleavage was 0.31. Variant C14A A18U U41C A47G U49C U67A has a self-cleavage of 0.14. C14A A20G U69C U74C gave a self-cleavage of 0.41. C14A A21G A35G U43C A45U A56G gave a self-cleavage of 0.12. In the case of C14A A21G A35U U43G, the self-cleavage is reported as 0.05. For C14A A21U U43C A57U U72C, the self-cleavage was 0.06. For C14A A28G A35U, the self-cleavage was 0.3. C14A A28G G42A A45U A56G G61A gave a self-cleavage of 0.04. In the case of C14A A35G U66C, the self-cleavage is reported as 1.28. C14A A35U U41A U43C A56G showed a self-cleavage of 0.18. Variant C14A A35U U51A U60A has a self-cleavage of 0.16. In the case of C14A A45G A56G A64U U72A, the self-cleavage is reported as 0.27. Work on C14A A45G G63C U69C yielded a self-cleavage of 0.5. C14A A45G U51C U69A showed a self-cleavage of 0.34. With C14A C23U U25A A64U U69C the self-cleavage was 0.18. C14A C29A U51A G73A U76C gave a self-cleavage of 0.97. With C14A G19A U43A A56G U69C U76A U80A the self-cleavage was 0.08. C14A G24A U26A A47G showed a self-cleavage of 0.09. Work on C14A G30U U41C U49A U67C U80C yielded a self-cleavage of 0.17. Variant C14A G33A A35U U54C A64C U78C has a self-cleavage of 0.05. Work on C14A U25C A57G yielded a self-cleavage of 0.21. Work on C14A U25C U41C A64G U80C yielded a self-cleavage of 0.36. Work on C14A U26A U49C U51G yielded a self-cleavage of 0.42. With C14A U26C C32U the self-cleavage was 0.38. C14A U41C A45C showed a self-cleavage of 0.37. Variant C14A U41C U43C U51A A57U A65G has a self-cleavage of 0.09. C14A U43C U49A showed a self-cleavage of 0.29. With C14A U48C U54A U80C the self-cleavage was 0.92. C14A U49C U58C U74A showed a self-cleavage of 0.07. Work on C14A U51C U58C U66C U78C yielded a self-cleavage of 0.25. For C14A U54G U67C, the self-cleavage was 0.4. For C14A U66C C81G, the self-cleavage was 0.97. For C14G A15G G30U U43C U49C U80C, the self-cleavage was 0.19. C14G A20G U25C G52U gave a self-cleavage of 0.15. Variant C14G A28G A45U U48C U51A U54G U74C has a self-cleavage of 0.04. For C14G A35G U80C, the self-cleavage was 1.29. For C14G C23A U48C, the self-cleavage was 0.07. Variant C14G C44U C50A U69C has a self-cleavage of 0.11. Work on C14G U31A G33A U60C yielded a self-cleavage of 0.18. With C14U A15C C38U U58C U66A the self-cleavage was 0.17. With C14U A15G A56G U80C the self-cleavage was 1.19. For C14U A15G G52U, the self-cleavage was 1.19. Variant C14U A15G U49C U66G has a self-cleavage of 0.28. C14U A15G U80A showed a self-cleavage of 1.27. C14U A15U A20G gave a self-cleavage of 0.54. C14U A15U A56U A65U gave a self-cleavage of 0.1. For C14U A15U C17U U25C U66A U67A, the self-cleavage was 0.06. For C14U A15U C32U U60C U67C, the self-cleavage was 0.06. With C14U A18C C32U A64G U72G the self-cleavage was 0.02. Work on C14U A18C U58C C79G yielded a self-cleavage of 0.25. With C14U A18G A35U the self-cleavage was 0.23. With C14U A18G A47G A75G the self-cleavage was 0.79. Variant C14U A18G G46U U67C U74A has a self-cleavage of 0.03. Work on C14U A20G A47U A57G U66C U72A A77G yielded a self-cleavage of 0.03. With C14U A20G C29A A35C U72C U80C the self-cleavage was 0.15. For C14U A20G C39A U49A A57G, the self-cleavage was 0.05. In the case of C14U A20G U25A, the self-cleavage is reported as 0.16. Work on C14U A20G U26A C29U U58C yielded a self-cleavage of 0.12. For C14U A20G U41C, the self-cleavage was 0.93. In the case of C14U A20G U54C A56U, the self-cleavage is reported as 0.45. Variant C14U A20G U58A U67C has a self-cleavage of 0.28. Work on C14U A20U A35G U41A yielded a self-cleavage of 0.07. Variant C14U A20U U51A has a self-cleavage of 0.34. C14U A20U U66C gave a self-cleavage of 0.12. Work on C14U A21G A28G yielded a self-cleavage of 0.23. C14U A21G A57G G70A gave a self-cleavage of 0.11. Work on C14U A21G G33A U41G A45G A64G U72A yielded a self-cleavage of 0.06. C14U A21G U25C A35G U49C G55U U72C showed a self-cleavage of 0.07. Work on C14U A21G U48C G63A U72C U80C yielded a self-cleavage of 0.13. In the case of C14U A21G U60C U69C, the self-cleavage is reported as 0.18. Variant C14U A28G C39U U41A U78C has a self-cleavage of 0.13. For C14U A28G U49C C59A, the self-cleavage was 0.23. With C14U A35G A56G C62U A75G U78C the self-cleavage was 0.69. For C14U A35G G70A U76C, the self-cleavage was 1.29. For C14U A35U G53A U74C U78C, the self-cleavage was 0.98. Variant C14U A45C A77G U78C has a self-cleavage of 0.11. Work on C14U A45U A56U A65G yielded a self-cleavage of 0.06. C14U A47G U48A U67C showed a self-cleavage of 0.18. With C14U A56G U58C the self-cleavage was 0.45. With C14U A56G U67C the self-cleavage was 0.19. For C14U A65G U74C, the self-cleavage was 1.07. C14U C17U U41A showed a self-cleavage of 0.39. C14U C17U U41G U51G A57G U76C gave a self-cleavage of 0.04. Work on C14U C32A G46U yielded a self-cleavage of 0.41. Work on C14U C32U U43C U72C A77G yielded a self-cleavage of 0.17. C14U C40U G70A U72G U80A gave a self-cleavage of 0.38. C14U C59U U74A gave a self-cleavage of 1.25. C14U G19C A28G U69C showed a self-cleavage of 0.12. Work on C14U G19C U67A U78A U80C yielded a self-cleavage of 0.2. Work on C14U G24A C50A yielded a self-cleavage of 0.08. For C14U G24A U51C U66C, the self-cleavage was 0.17. C14U G24U A35U U72A gave a self-cleavage of 0.07. Variant C14U G30U U49C U54C U58C U76C U80C has a self-cleavage of 0.03. With C14U G33C G46U U54C A57G the self-cleavage was 0.06. C14U G46U A77G showed a self-cleavage of 0.12. C14U G55C U72A showed a self-cleavage of 0.33. With C14U G63A U72C U74C the self-cleavage was 1.2. For C14U U25A U69G, the self-cleavage was 0.13. Variant C14U U25A U72C has a self-cleavage of 0.38. With C14U U25C A28G U31A G33A U48C the self-cleavage was 0.06. C14U U25C A65G U72A showed a self-cleavage of 0.14. C14U U25C C59U U69C U72A gave a self-cleavage of 0.12. Variant C14U U25G A35U A75G has a self-cleavage of 0.18. Work on C14U U26C A47G yielded a self-cleavage of 0.56. For C14U U26C C29G A35G U72A, the self-cleavage was 0.11. C14U U26C C68U gave a self-cleavage of 0.55. C14U U26C G36A U48C U80C gave a self-cleavage of 0.29. Work on C14U U26C G36U U72C yielded a self-cleavage of 0.06. C14U U26C U43C A45U A64G showed a self-cleavage of 0.11. C14U U26C U43C U60C A64G U67C U72A showed a self-cleavage of 0.11. Work on C14U U26C U49A yielded a self-cleavage of 0.55. In the case of C14U U26G A35G A45G U78C, the self-cleavage is reported as 0.99. C14U U26G U74A gave a self-cleavage of 0.3. Variant C14U U31A A45C U60A A65G has a self-cleavage of 0.06. C14U U31A A57U U69A showed a self-cleavage of 0.09. For C14U U31A U76A, the self-cleavage was 0.78. In the case of C14U U31C U41C U60C A64G, the self-cleavage is reported as 0.12. C14U U41C A56G showed a self-cleavage of 1.22. C14U U41G C62U U67A U72C gave a self-cleavage of 0.03. C14U U43C U58C U72G showed a self-cleavage of 0.06. With C14U U43C U60A U74C U78A the self-cleavage was 0.45. Work on C14U U43C U76A yielded a self-cleavage of 0.66. Work on C14U U43C U78C C79A yielded a self-cleavage of 1.21. C14U U48A U80A gave a self-cleavage of 0.36. Work on C14U U48C A56G U72A yielded a self-cleavage of 0.53. In the case of C14U U49A U72C, the self-cleavage is reported as 0.89. In the case of C14U U51A U58C U78C, the self-cleavage is reported as 0.58. Work on C14U U51C U69A U78C yielded a self-cleavage of 0.58. In the case of C14U U54A A57G C62A, the self-cleavage is reported as 0.35. Work on C14U U54C A64G yielded a self-cleavage of 1.17. C14U U54G A57G U80C showed a self-cleavage of 0.48. For C14U U58C U78C, the self-cleavage was 0.54. Work on C14U U60A U69C U72C U74A A75G yielded a self-cleavage of 0.3. Variant C14U U66C U72C U74A has a self-cleavage of 0.66. For C14U U67C U72C A75G, the self-cleavage was 0.09. Variant C14U U69C U80A has a self-cleavage of 0.97. A15C A18G A20G U41A U48C U78C gave a self-cleavage of 0.78. In the case of A15C A18G G33A U43A A56U U60C, the self-cleavage is reported as 0.08. A15C A18G U54C gave a self-cleavage of 0.21. Work on A15C A20G A28U U60C G70A yielded a self-cleavage of 0.15. Work on A15C A20G A75U yielded a self-cleavage of 0.7. With A15C A20U C34G C68A the self-cleavage was 0.02.
